For one compound, POW-related behavior results are on record in patent US12433883B2, “Covalent modification and controlled delivery of mu opioid receptor antagonists” (Allegheny Singer Research Institute, priority 2019, dated 2025).

This series deals with opioid-dependent mice. The following applies: free naloxone 8 mg/kg, data collected for 6 hours.

As to `C=CCN1CC[C@]23c4c5ccc(O)c4O[C@H]2C(=O)CC[C@@]3(O)[C@H]1C5` [free naloxone, naloxone], the POW-related behavior entry is recorded as “significant POW-related behavior”.
